Laboratory results published in PubChem BioAssay AID1240 (Sanford-Burnham Center for Chemical Genomics, 2008).
Screen size: about 50,000 compounds; about 800 (1.6%) showed an effect of 50% or more. The list shows a part of the results.

What follows are molecules tested against Bcl-2-like protein 10 (Homo sapiens) (UniProt Q9HD36) (assay: Phenotype converters, Bcl-B/TR3 peptide binding displacement, primary biochemical FP (AID 1240;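 also: 0% = Bcl-B with tracer peptide and DMSO and 100% = tracer peptide lacking Bcl-B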)). Details: GST-Bcl-B / FITC-TR3 peptide fluorescence polarization; stronger effect = higher value; compound at 3.75 mg/L.
Chain of UniProt Q9HD36 (Q9HD36 whole entry, looked up): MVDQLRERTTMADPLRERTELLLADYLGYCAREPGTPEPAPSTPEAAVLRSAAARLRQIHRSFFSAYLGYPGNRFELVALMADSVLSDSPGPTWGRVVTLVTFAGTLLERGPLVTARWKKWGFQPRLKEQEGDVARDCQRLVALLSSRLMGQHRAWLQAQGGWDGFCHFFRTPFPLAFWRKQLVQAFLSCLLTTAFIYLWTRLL

Compound	displacement
CCCC(=O)NC(c1ccc(OC)cc1)c1ccc(OCC)cc1 (stereo not drawn)	-8.1%
COc1ccc(C(CC(=O)N2CCOCC2)c2ccccc2)cc1 (stereo not drawn)	-0.6%
O=C(/C=C/c1ccc(OC2CSC2)cc1)c1ccc(Cl)cc1	-2.4%
CCOCCOC(=O)c1ccc(NC(=O)COc2cc(C)cc(C)c2)cc1	19.7%
CCOc1ccc(-c2csc(/C(C#N)=C/c3ccc(Cl)cc3)n2)cc1	12.8%
CC1=C(C(=O)Nc2ccccc2C)C(c2ccccc2Br)NC(=S)N1 (stereo not drawn)	10.8%
CCC(=O)Nc1nc(C)c(-c2csc(Nc3cccc(C(=O)O)c3)n2)s1	34.5%
CCOc1ccccc1N1CCN(C(=O)c2cccc([N+](=O)[O-])c2)CC1	-6.4%
CC(C)COc1ccc(C(=O)Nc2ccc(Cc3ccncc3)cc2)cc1	-0.2%
O=C(O)COc1ccc(N2C(=O)C3CC=CCC3C2=O)cc1 (stereo not drawn)	-15%
c1ccc(-c2cnnc3c2[nH]c2ccccc23)cc1	13.6%
CC(C)(C)c1ccc(CSc2nc3ccccc3c(=O)[nH]2)cc1	-0.5%
CCOc1ccc(C(NC(=O)c2ccccc2F)c2ccc(OC)c(OC)c2)cc1 (stereo not drawn)	-5.9%
Cc1ccc(S(=O)(=O)c2nc(N)sc2Cl)cc1	15.4%
COc1cccc(N2C(=O)NC(=O)/C(=C/C=C/c3ccco3)C2=O)c1	-47.4%
Cc1cc(C)c(NC(=O)c2cncc(Br)c2)c(C)c1	8.3%
NC1=NC(=O)/C(=C/c2ccc(Br)cc2)S1	3.7%
CCN(CC)S(=O)(=O)c1ccc(C)c(C(=O)O)c1	1.5%
COc1cccc(OCCn2c(=O)c3cc4c(=O)n(CCOc5cccc(OC)c5)c(=O)c4cc3c2=O)c1	1.7%
O=C1c2ccccc2C(=O)N1Oc1ccc(C(F)(F)F)cc1[N+](=O)[O-]	-1.7%
O=C1c2ccccc2NC(c2ccccc2)N1O (stereo not drawn)	-0.6%
CC1(C)C(=O)N(Cc2ccccc2)c2ccccc2N1C(=O)c1ccc([N+](=O)[O-])cc1	-1.7%
Cc1cccc(OCCN2CCCCC2)c1	6.7%

Compound	displacement
Cc1cc(OCC(=O)Nc2cccc(F)c2)ccc1Cl	-5.3%
CN(C)c1cc(Nc2ccccc2)c2c3c(onc13)-c1ccccc1C2=O	0%
Cc1cc(N2CCOCC2)c2c(N)c(Br)cc(C)c2n1	8.1%
COc1ccc(/C=C(\C#N)c2nc3ccccc3[nH]2)cc1OC	11%
CC(C)=C1C(=O)NN(c2ccccc2)C1=O	14.7%
CCOC(=O)C1=C(c2ccccc2)NC(=S)NC1c1ccc(OC)cc1 (stereo not drawn)	6.2%
N#C/C(=C\c1ccc(-c2ccc3c(c2)COC3=O)o1)C(N)=O	-10.4%
COc1cc(/C=C2/SC(=S)N(CC(=O)Nc3nc4ccccc4s3)C2=O)cc(OC)c1OC	10.6%
O=C(NCCCc1ccccc1)c1cccc(F)c1	-1.9%
CCCC(=O)N1c2c(C)cccc2C(Nc2ccccc2C)CC1C (stereo not drawn)	0.5%
Cc1cccc(C(=O)O)c1NC(=O)C(C)Oc1ccccc1 (stereo not drawn)	-7.7%
CC(=O)c1cc(F)c(N2CCN(C(=O)c3cccs3)CC2)cc1C	80%
Cc1ccc(C)c(NC(=O)C2C3CC/C=C\CCC32)c1 (stereo not drawn)	-3.6%
CCN(CC)S(=O)(=O)c1cccc(C(=O)Nc2ccc(C(C)=O)cc2)c1	-9.7%
COc1ccccc1CC(=O)N1CCN(c2ccccc2)CC1	1.4%
CCOC(=O)c1cccc(NC(=O)c2ccco2)c1	13.5%
CN(C)CCNC(=O)COc1ccc(C23CC4CC(CC(C4)C2)C3)cc1	-7.9%
Cc1ccc(S(=O)(=O)C(CC(=O)c2ccccc2)c2ccco2)cc1 (stereo not drawn)	-2.2%
CN1CCN(/N=C/c2ccc(-c3ccc([N+](=O)[O-])cc3Cl)o2)CC1	-26.9%
Cc1cccc(/C(N)=N/OC(=O)c2cccc(Br)c2)c1	8.8%
CC(C)c1ccc(NC(=O)C(=O)NCc2cccs2)cc1	0.5%
CC(=O)n1nc(-c2ccccc2)c(-c2nc3ccccc3[nH]2)c1C	8.1%
CC(CCc1ccccc1)Nc1cc(N2CCN(C(=O)c3ccccc3F)CC2)ccc1[N+](=O)[O-] (stereo not drawn)	10.9%

Compound	displacement
COc1ccc(NC(=S)NCc2cccnc2)cc1	-2.2%
CCOC(=O)COc1ccc(/C=C2\C(=O)NC(=O)N(c3ccc(C(C)(C)C)cc3)C2=O)cc1OC	-20.5%
C[n+]1ccc(/C=C/c2ccc3c(c2)OCO3)cc1	13.5%
CCOC(=O)C1=C(C)N=c2s/c(=C\c3ccco3)c(=O)n2C1/C=C/c1ccccc1 (stereo not drawn)	-32.7%
COP(=O)(OC)C(Nc1cc(Cl)cc(Cl)c1)c1cccc(O)c1 (stereo not drawn)	-14.6%
NC(=O)c1c(NC(=O)c2ccco2)sc2c1CCC2	4.5%
CCC(=O)N(CCc1ccccc1)C1CC(=O)N(c2ccc(F)cc2)C1=O (stereo not drawn)	-5.8%
NS(=O)(=O)c1ccc(CNC2CC(=O)N(c3cccc(Br)c3)C2=O)cc1 (stereo not drawn)	-5%
COc1cc(/C=N/NC(=O)c2cccc([N+](=O)[O-])c2)ccc1OCc1ccccc1	7.8%
O=C(NCCOc1ccc(Cl)cc1Cl)c1cc2ccccc2o1	-7.6%
O=S(=O)(Nc1ccc2oc(-c3ccc(I)cc3)nc2c1)c1ccccc1	4.2%
COc1ccc(NC(=O)C2CC2(c2ccc(C)cc2)c2ccc(C)cc2)cc1 (stereo not drawn)	1%
CCOc1cc(/C=N/O)ccc1OCc1ccc(Cl)cc1	-6%
Cc1cccc(OCC(=O)Nc2ccc(I)cc2)c1C	-2.6%
CCCCOc1ccc(C(CC(=O)O)CC(=O)O)cc1	-7.2%
CCOC(=O)c1ccccc1NC(=O)c1cc(-c2ccccc2C)nc2ccccc12	-5.1%
O=S(=O)(NCc1cccnc1)c1ccc(Cl)cc1	-12%
O=C(Nc1ccc(Oc2ccccc2)cc1)c1cc(S(=O)(=O)N2CCOCC2)ccc1Cl	-17.1%
O=C(Nc1ccc(I)cc1Cl)c1ccc(OCc2ccccc2)cc1	6.5%
CCOc1ccc2nc(SCC(=O)Nc3ncccn3)sc2c1	10%
COc1ccc(OCCCCNC(C)(C)C)cc1	8.2%
O=S(=O)(c1ccc2c(c1)OCCO2)N1CCOCC1	-3.4%
O=C(NCc1cccs1)c1nn2c(c1Cl)NC(c1ccco1)CC2C(F)(F)F (stereo not drawn)	1.6%

Compound	displacement
Cc1cc(C)cc(NC(=O)CN(Cc2ccccc2)S(=O)(=O)c2ccccc2)c1	9.1%
Clc1ccc(/C=N/Nc2nccs2)c(Cl)c1	-7.1%
Cc1ccc(CC2C(=O)N(c3ccc(C)cc3)C(=O)C2C)cc1 (stereo not drawn)	2.2%
Fc1cccc(Nc2nc(-c3ccncc3)nc3ccccc23)c1	0.9%
Cc1cc(C)c(C(=O)/C(=C/c2ccccc2Cl)c2ccccc2)c(=O)[nH]1	11.3%
CCOc1cc(C(=O)Nc2sc3c(c2C(=O)OC)CCCCC3)cc(OCC)c1OCC	-14.2%
CCOC(=O)c1sc(NC(=O)C2CC=CCC2C(=O)O)c(C(N)=O)c1C (stereo not drawn)	9.4%
CCOc1ccc2nc(NC(=O)c3ccccc3O)sc2c1	-1%
COc1ccc(C2C(=O)c3ccccc3C2=Nc2cccc(C(C)=O)c2)cc1 (stereo not drawn)	2.8%
COC(=O)C1=C(C)NC2=C(C(=O)CCC2)C1c1cc2c(cc1Br)OCO2 (stereo not drawn)	2.6%
CC1(C)CC(NC(=O)c2ccc(Cl)cc2)CC(C)(C)N1	-14.7%
O=C(Nc1ccccc1C(F)(F)F)c1nn2c(c1Cl)NC(c1ccccc1)CC2C(F)(F)F (stereo not drawn)	12.4%
CC(=O)Nc1nc2cc3sc(NC(C)=O)nc3cc2s1	2.5%
CCN(CC)c1ccc(NC(=O)c2ccncc2)cc1	-0.4%
C=CCc1cccc(/C=N/NC(=O)c2cc(C34CC5CC(CC(C5)C3)C4)[nH]n2)c1O	-2.6%
O=C(NCc1ccc(Cl)cc1)c1cnn2c(C(F)(F)F)cc(-c3ccco3)nc12	11%
Cc1ccc(NCC(=O)N/N=C\c2ccc(OC(=O)c3ccccc3)cc2)cc1	7.2%
O=C(CC1CCCCC1)Nc1ccccc1	-8.1%
CCN(CC)c1ccc(N=Cc2ccccc2[N+](=O)[O-])cc1	-4.1%
Cc1ccc(-c2ccc(C=O)o2)c(Br)c1	-8.9%
CCOC(=O)c1c(NC(=O)c2cc(OCC)c(OCC)c(OCC)c2)sc(C)c1C	-6.2%
COc1ccccc1OCCOc1ccc(Br)cc1/C=c1\sc2nc3ccccc3n2c1=O	3.4%
CCN(CC)CCCNC(=O)c1cc(Cl)ccc1Cl	0.5%

Compound	displacement
CN(C)S(=O)(=O)c1ccc2c(c1)C(=C(C#N)C#N)c1cc(S(=O)(=O)N(C)C)ccc1-2	-7%
O=c1/c(=C/c2ccc(O)cc2)sc2nc3cc(Br)cnc3n12	-0.4%
O=C1S/C(=C/c2ccc(-c3ccc([N+](=O)[O-])cc3Cl)o2)C(=O)N1c1ccccc1	47.4%
CCc1ccccc1N(CC(=O)Nc1ccccc1Cl)S(C)(=O)=O	-6.2%
CCOc1ccccc1C(=O)Nc1c(Cl)cccc1Cl	4.2%
Nn1cnnc1N/N=C/c1cccc(I)c1	5.4%
CCOn1c(=O)c(=O)n(OCC)c2ccccc21	17.9%
CC12C=CC(O1)C1C(=O)N(c3cccc(C(=O)O)c3)C(=O)C12 (stereo not drawn)	-8.4%
COc1ccc2nc(C)c(CCC(C)=O)c(Cl)c2c1	0.3%
O=C1C2C3C=CC(C4CC34)C2C(=O)N1C12CC3CC(CC(C3)C1)C2 (stereo not drawn)	1.1%
CCN(CC)c1ccc(NC(=O)c2ccc3ccccc3n2)cc1	1.3%
CCCOc1cccc(C(=O)NCc2ccncc2)c1	-9.6%
N#CCc1nc(-c2ccc([N+](=O)[O-])cc2)cs1	3%
Cc1sc(NC(=O)C2CC(O)CN2C(=O)OC(C)(C)C)nc1-c1ccccc1 (stereo not drawn)	-14.9%
Cc1ccc(C)c(NC(=O)CC(C)c2ccccc2)c1 (stereo not drawn)	6.5%
CCn1c2ccccc2c2cc(CNc3ccc(C)c(C)c3)ccc21	7.1%
COc1ccc(C)cc1NC(=O)COc1ccc(Br)c(C)c1	-8.9%
COc1cccc2cc(-c3nc4ccccc4o3)c(=O)oc12	3.9%
O=C(COc1cccc2ccccc12)NNC(=O)c1ccc(Cl)c(Cl)c1	-12.3%
Cc1ccc(-c2[nH]n3c(=O)cc(-c4ccccc4)nc3c2C)cc1	15.2%
CC(NC(=O)c1ccc(C(=O)O)cc1C(=O)O)c1ccccc1 (stereo not drawn)	12.8%
